Results on three molecules are retold here after PMC3104040 (Bioorganic & medicinal chemistry, 2011).

The structures appear in SMILES notation.

For series [1] the following is noted: s9, 1.5 h.

With `Nc1ccn(C[C@@H](CO)OCP(=O)(O)OCCCOCCCCCCCCCCCCCCC2CC2)c(=O)n1` [14-cp-TDP-CDV, 14-cyclopropyl-tetradecyloxypropyl-cidofovir], the “time to 50% loss in monkey S9” value lay in the range of 45 to 70 min.

Turning to `CC(C)CCCCCCCCCCCCCCOCCCOP(=O)(O)CO[C@H](CO)Cn1ccc(N)nc1=O` [Compound 15M-HDP-CDV, 15-methyl-hexadecyloxypropyl-cidofovir], the “time to 50% loss in monkey S9” value was 45 to 70 min.

Consider `CCCCCCCCCCCCCCCCOCCCOP(=O)(O)CO[C@H](CO)Cn1ccc(N)nc1=O` [HDP-CDV, hexadecyloxypropyl-cidofovir], for which the “time to 50% loss in monkey S9” value came out at 20 min. Also, the “% intact compound remaining, monkey S9” value (s9, 1.5 h) is listed as 4-16%. The “% of initial compound remaining, human and guinea pig liver S9” value in series [1] was 83-97%.
